Laboratory results: PubChem BioAssay AID1508624 (National Center for Advancing Translational Sciences (NCATS), 2021)
The campaign covered roughly 48,000 compounds. About 120 (0.25%) were called active. Inconclusive results (about 4%) are left out. The call rests on the fitted dose curve; in most records, active means well fitted activation curve with a large enough effect; inconclusive means small, poorly fitted or top-dose-only effect, or another doubt; inactive means no such curve, though single readings can be large or run the other way. Some of the results follow.

test: Primary qHTS for Identification of Small Molecule Activators of Huntingtin-Antisense Promoter Activity; conditions: HEK293 HTT-AS promoter firefly luciferase reporter, 24 h; series mostly up to 57.5 µM; activity change, positive = activation: at the top concentration; further: nearly all actives have a fitted effect of over 55% in size
Outline: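 Quantitative HTS used concentration series of up to 57.5 uM final on HEK293 luciferase reporter cells, 24 h at 37 degrees C. Readout was Dual-Glo firefly luminescence.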

Activity change, positive = activation, inactive:
COc1ccc(C2=C(C)C(=NCc3ccc(OC(C)C)cc3)NS2(=O)=O)cc1 -11.1%
Cc1ccc2c(c1)sc1nc(=O)n(-c3ccc(Cl)c(Cl)c3)c(=O)n12 -21.3%
Cc1ccc(NC(=O)C2CCN(C(=O)c3cnn(-c4ccccc4)c3-n3cccc3)CC2)cc1C -34.2%
O=C(CN1CCCN(Cc2cccc(F)c2)S1(=O)=O)Nc1ccc2c(c1)OCCO2 -7.38%
O=C(NCC(c1cccnc1)N1CCc2ccccc2C1)C(=O)Nc1ccc(F)cc1F (stereo not drawn) -0.795%
Cc1cccc(-c2nc(C)c(CCNC(=O)c3cccs3)s2)c1 17.2%
CC(C)c1ccc(NC(=O)CCNS(=O)(=O)c2ccc3c(c2)oc(=O)n3C)cc1 -8.44%
CCS(=O)(=O)c1ncc(Cl)c(C(=O)Nc2c(C(=O)c3ccc(C)cc3)oc3ccccc23)n1 4.46%
Cc1ccc(-n2ncc(C(=O)N3CCN(C(=O)c4ccco4)CC3)c2C2CCN(C(=O)OC(C)(C)C)CC2)cc1 -6.82%
COC(=O)c1nnn(-c2ccc(Cl)cc2)c1C(=O)OC -0.944%
O=C(CCS(=O)(=O)c1nc(-c2ccc3c(c2)OCO3)cc(C(F)(F)F)n1)Nc1ccc(F)cc1F 2.95%
O=C(CSc1oc(-c2ccc(F)cc2)nc1S(=O)(=O)c1ccc(Cl)cc1)c1ccccc1 -19.3%
O=C(c1ccc2c(c1)N(Cc1cccc(Cl)c1)C(=O)c1ccccc1S2(=O)=O)N1CCCCCC1 -33.7%
Cc1cccc(CCNC(=O)c2nn(C)c3c2CSc2ccccc2-3)c1 -16.8%
Cc1nn2c(=O)cc(COC(=O)C(c3ccccc3)c3ccccc3)nc2s1 -14.6%
Cc1ccc2c(c1)N(C(=O)N1CCC(C(=O)NCc3cccs3)CC1)CC(C)O2 (stereo not drawn) -25.9%
COc1ccc(CNC(=O)c2cc3c(=O)[nH]c4ccccc4c3n2C)c(OC)c1 -7.6%
COc1ccc(Cl)cc1NC(=O)NCc1noc2ccccc12 -16.6%
COc1ccc(CCNC(=O)CCCn2c(=O)c3ccccc3n(CC(=O)Nc3ccc(C)cc3Cl)c2=O)cc1OC -43.4%
Cc1cccc(N(CC(=O)NCCSc2ccc(Cl)cc2)S(C)(=O)=O)c1C -40.9%
Cc1ccc(-c2c(C(=O)N(C)Cc3ccccc3)oc(=O)c3ccccc23)cc1 -30%
CC(CC(=O)NCc1ccc(Cl)cc1Cl)CC1=NS(=O)(=O)c2ccccc2N1 (stereo not drawn) -29.9%
O=c1oc2c(O)c(O)cc3c(=O)oc4c(O)c(O)cc1c4c23
COc1ccc(CCNC(=O)c2cc(=O)c3c(C)cc(C)cc3o2)cc1OC 7.66% [at 11.5 µM, percent change from vehicle, -100% = no light]
COc1cc2c(cc1OC)n(CC(=O)Nc1ccccc1)c(=O)n1nc(-c3ccccc3)nc21 -16.7%
COC(=O)c1ccc(NC(=O)C(=O)NCCc2sc3nc(-c4ccc(OC)cc4)nn3c2C)cc1 14.5%
O=C(CCn1c(=O)c2cccn2c2cccnc21)NCc1ccc(Cl)cc1 -3.5%
COc1ccccc1NC(=O)C1=C(C)Nc2c(C(=O)Nc3cccc(C)c3)cnn2C1c1ccccc1C (stereo not drawn) -9.1%
Cc1ccc(/C=C/c2nc3ccccc3n2S(=O)(=O)c2cccc(Cl)c2)cc1 31.1%
Cc1cccc(OC(=O)c2nc(SCc3ccccc3F)ncc2Cl)c1 -4.86%
CCOC(=O)c1ccc(NC(=O)Cn2cc(C(=O)c3cccs3)c3ccccc32)cc1 -23.9%
Cc1ccc(Nc2nc3c(S(=O)(=O)c4ccccc4)nnn3c3ccc(Cl)cc23)c(C)c1 -2.19%
COc1cc2nc(Nc3ccc(C)c(C)c3)nc(N)c2cc1OC -17.8%
CCCCOC(=O)c1c(C)oc2ccc(NS(=O)(=O)c3ccc(F)cc3C)cc12 -23.6%
CCOc1ccc(CN(C(=O)c2cc(=O)c3cc(Cl)ccc3o2)C2CCS(=O)(=O)C2)cc1 (stereo not drawn) -11%
CCc1ccc(CNc2ncnc3onc(-c4ccc(Cl)cc4)c23)cc1 -34.6%
COc1ccc(-c2cc(C(F)(F)F)n3nc(C(=O)Nc4sc5c(c4C(=O)OC(C)C)CCCC5)cc3n2)cc1OC -0.64%
NC(N)=NC(=O)c1nc(Cl)c(N)nc1N
COc1ccc(N2CCN(C(CNC(=O)c3cccc(OC)c3)c3cccnc3)CC2)cc1 (stereo not drawn) -22.8%
CCN(CC)C(=O)C1CCN(c2cc(C)nc3c(-c4ccc(OC)c(OC)c4)c(C)nn23)CC1 -5.8%
Cn1c(C(=O)N2CCCC(C(=O)N3CCN(c4ccccc4)CC3)C2)cc2sccc21 (stereo not drawn) -4.29%
CCCCNC(=O)CSC1=Nc2ccccc2C2=NC(CCC(=O)NCc3ccccc3OC)C(=O)N12 (stereo not drawn) 2.72%
CCc1ccc(NC(=O)CSc2cn(CC(=O)N3CCOCC3)c3ccccc23)cc1 13.9%
COc1ccc(NC(=O)Cn2c(=O)n(-c3ccc(C)c(C)c3)c(=O)c3c4c(sc32)CCCCC4)cc1Cl -12%
NS(=O)(=O)c1cc2c(cc1Cl)NC(C1CC3C=CC1C3)NS2(=O)=O (stereo not drawn) -3.55%
O=C1NS(=O)(=O)c2ccccc21 -1.59%
COc1ccc(CNC(=O)Cn2c(=O)n3nc(-c4cccc(F)c4)nc3c3ccccc32)cc1OC 1.1%
COc1ccc(CNC(=O)C2=Cc3cccc(OC)c3OC2)cc1OC -19.1%
COc1ccc(OC)c(NS(=O)(=O)c2ccc3c(c2)CCCN3C(=O)C2CCC2)c1 -13.6%
O=C(Nc1ccc(F)cc1F)c1cc(CN2CCOCC2)on1 11.1%
CCc1ccc(CNC(=O)c2ccc(-n3c(C)cc4c3CCC(C)C4)cc2)cc1 (stereo not drawn) 7.43%
COc1cccc(C(c2sc3nc(-c4ccco4)nn3c2O)N2CCC3(CC2)OCCO3)c1 (stereo not drawn) -6.48%
Cc1ccc(S(=O)(=O)Nc2ccc3c(c2)CCCN3C(=O)c2cccs2)cc1C -26.6%
Cc1cccc(NC(=O)C(Cc2ccccc2)N2Cc3ccccc3C2=O)c1C (stereo not drawn) -7.02%
CCc1nn(CC(=O)NCCN(CC(C)C)CC(C)C)c(=O)c2cc3sc(C)cc3n12 -12.1%
O=C(NCC(c1ccc2c(c1)OCO2)N1CCOCC1)C(=O)Nc1ccc(Cl)cc1 (stereo not drawn) -10.3%
Cc1ccccc1OCCSc1nnc(-c2ccc([N+](=O)[O-])cc2)o1 2.32%
CC(=O)CC(c1ccccc1)c1c(O)c2ccccc2oc1=O (stereo not drawn)
Oc1cccc(-c2nc(-c3cccs3)c(-c3cccs3)[nH]2)c1 -21.5%
COc1ccccc1NC(=O)c1cc2c(n(-c3ccc(C)cc3)c1=O)CC(C)(C)CC2=O -6.74%
O=C(c1ccc2c(c1)N(Cc1cccc(Cl)c1)C(=O)c1ccccc1S2(=O)=O)N1CCN(Cc2ccccc2)CC1 -27.2%
CCc1cc2c(cc3c(=O)n(CC(=O)NC(C)C)nc(CC)n32)s1 3.68%
COc1ccc(CNC(=O)CSCc2ccc(C)cc2)c(OC)c1 -4.94%
CCC1CCCCN1CCCNC(=O)c1sc2nc(C)cc(C)c2c1-n1cccc1 (stereo not drawn) -3.68%
Cn1c(=O)oc2cc(S(=O)(=O)N3CCCC(C(=O)N4CCN(c5ccc(F)cc5)CC4)C3)ccc21 (stereo not drawn) -27.3%
O=C(NCCCN1CCN(c2ccccc2)CC1)c1ccc2nc(CCc3ccccc3)oc2c1 -22.5%
CC(Oc1ccc(Br)cc1)C(=O)N(Cc1nc(-c2ccccc2)no1)C(C)C (stereo not drawn) -50.2%
Cc1ccccc1OCC(=O)Nc1nnc(S(=O)(=O)N2CCCCCC2)s1 -28.6%
CCc1nn2c(=O)cc(COC(=O)c3ccccc3NC(=O)c3ccc(C(C)(C)C)cc3)nc2s1 17.4%
c1coc(CNc2ncnc3nc[nH]c23)c1 -8.99%
CSc1cccc(NC(=O)C2CCCN(S(=O)(=O)c3ccc4c(c3)CCCN4C(C)=O)C2)c1 (stereo not drawn) -38.7%
CN(C)CCCOC1(Cc2ccccc2)CCCCCC1 -9.44%
COc1ccc(-c2nc(CSc3nnc(C)n4c3cc3sccc34)c(C)o2)cc1 -15.5%
O=C(Nc1c(C(=O)N2CCN(c3ccccc3F)CC2)oc2ccccc12)c1ccc(Br)o1 -26.7%
Oc1ccccc1-c1nc2ccc(Cl)cn2c1Nc1ccc2c(c1)OCCO2 -11.4%
CCS(=O)(=O)N1CCc2cc(C(=O)Nc3cccc(NC(C)=O)c3)ccc21 -4.99%
COc1ccc(-c2ccc(=O)n(CC(=O)Nc3ccccc3C(F)(F)F)n2)cc1 -8.02%
Cc1ccc(C2c3[nH]c4ccccc4c3CCN2C(=O)CSc2ccccc2)cc1 (stereo not drawn) -31.2%
COc1cc(C2c3c(-c4ccccc4O)n[nH]c3C(=O)N2Cc2ccncc2)ccc1O (stereo not drawn) -8.01%
COc1c(C)c2c(c(O)c1CC=C(C)CCC(=O)OCCN1CCOCC1)C(=O)OC2 -26.2%
Cc1ccccc1NC(=O)c1ccccc1NC(=O)c1ccccc1Cl -4.77%
Cc1cc(OCCCSc2nc(-c3ccc(C(C)(C)C)cc3)nc3cc(=O)[nH]n23)ccc1Cl -15.2%
CCc1ccc(NC(=O)CSc2ccc3nnc(CCNS(=O)(=O)c4ccc(OC)cc4)n3n2)cc1 -17.6%
CCc1ccc(NC(=O)C2CCN(c3cc(C)nc4c(-c5ccc(Cl)cc5)c(C)nn34)CC2)cc1 18.9%
Cc1nc2ccc(S(=O)(=O)CCC(=O)Nc3ccc(F)cc3C)cc2s1 -10.2%
CC(C)c1ccc(NC(=O)CCCc2nc(-c3ccc(Cl)cc3)no2)cc1 -3.79%
COc1cc(Cl)c(NC(=O)C2CCN(S(=O)(=O)c3c(C)noc3/C=C/c3ccccc3F)CC2)c(OC)c1 19.1%
O=C(CCCn1c(=O)[nH]c2ccccc2c1=O)NCc1ccccc1Cl -4.68%
COc1cccc(NC(=O)CSc2nc3ccc(NC(=O)c4ccco4)cc3s2)c1 -9.31%
CCc1nn(CC(=O)NCCCOC)c(=O)c2cc3occc3n12 -5.32%
O=C(Cn1cnc2c(nc3n2CCCCC3)c1=O)Nc1ccc(F)cc1 3.6%
CCCN(CCC)CCCNC(=O)Cn1cnc2onc(-c3ccc(F)cc3)c2c1=O -3.75%
COc1ccc(S(=O)(=O)N2c3ccc(Cl)cc3[C@@](O)(c3ccccc3Cl)[C@H]2C(=O)N2CCC[C@@H]2C(N)=O)cc1OC -8.78%
